# PubChem BioAssay AID485360 (National Center for Advancing Translational Sciences (NCATS), 2010)
# Hit rate of the full screen: of about 230,000 compounds, about 1,500 (0.65%) were called active. The inconclusive results got no clear call from the source; some entries with a clear call stand among them for comparison. The call rests on the fitted dose curve; in most records, active means well fitted inhibition curve with a large enough effect; inconclusive means small, poorly fitted or top-dose-only effect; inactive means no such curve, though single readings can be large or run the other way. A potency beside an inconclusive call is a rough fit, not a confirmed value.
# Target: Lethal(3)malignant brain tumor-like protein 1 (Homo sapiens) (UniProt Q9Y468)
# Assay: qHTS Assay for the Inhibitors of L3MBTL1; further: nearly all actives have a fitted effect of over 60% in size
# Conditions: AlphaScreen L3MBTL1–H3K9me1 peptide binding; activity, negative = inhibition: at 57.1 µM (top of the series)
# In short: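 L3MBTL1 (50 nM) pre-complexed 30 min with biotinylated H3(1-15)K9me1 peptide (75 nM), then compounds added for 30 min at room temperature; AlphaScreen streptavidin donor/nickel chelate acceptor beads (10 ug/mL final) read after 30 min dark incubation.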
# On the % scale 0 is the no-effect control and ±100 the full control effect; potency means the concentration at half of the fitted maximal effect; tags describe the fitted curve by direction and shape.
# Chain of UniProt Q9Y468 (Q9Y468 whole entry, looked up): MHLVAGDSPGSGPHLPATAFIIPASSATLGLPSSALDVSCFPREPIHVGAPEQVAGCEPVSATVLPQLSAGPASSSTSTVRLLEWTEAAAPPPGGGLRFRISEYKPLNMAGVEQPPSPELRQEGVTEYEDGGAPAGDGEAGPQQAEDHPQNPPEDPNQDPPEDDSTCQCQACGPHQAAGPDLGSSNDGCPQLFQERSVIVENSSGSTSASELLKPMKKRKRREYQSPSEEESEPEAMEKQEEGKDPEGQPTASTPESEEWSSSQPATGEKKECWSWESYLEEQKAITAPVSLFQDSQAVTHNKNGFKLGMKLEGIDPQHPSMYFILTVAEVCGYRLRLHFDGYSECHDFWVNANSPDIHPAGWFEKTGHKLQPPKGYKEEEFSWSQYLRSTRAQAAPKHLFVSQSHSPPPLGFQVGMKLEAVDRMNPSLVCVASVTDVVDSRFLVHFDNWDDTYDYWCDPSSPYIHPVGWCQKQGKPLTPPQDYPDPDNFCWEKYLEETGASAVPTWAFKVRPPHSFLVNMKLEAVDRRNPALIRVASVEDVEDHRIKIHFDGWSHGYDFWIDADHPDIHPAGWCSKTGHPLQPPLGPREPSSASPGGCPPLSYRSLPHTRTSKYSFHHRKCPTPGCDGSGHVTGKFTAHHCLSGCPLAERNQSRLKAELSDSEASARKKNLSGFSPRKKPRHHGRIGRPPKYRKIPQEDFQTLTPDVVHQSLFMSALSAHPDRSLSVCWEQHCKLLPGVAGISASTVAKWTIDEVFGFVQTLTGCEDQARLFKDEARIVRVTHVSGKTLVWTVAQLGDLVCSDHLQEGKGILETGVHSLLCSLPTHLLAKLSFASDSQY
SMILES,Potency,"activity, negative = inhibition"
O=C1C2C3C=CC(CC3)C2C(=O)N1c1nccs1 (stereo not given),active: 25.1 µM,–
CC1CN(Cc2nc3c(c(=O)n(C)c(=O)n3C)n2CCN2CCOCC2)CC(C)O1 (stereo not given),–,inactive: 9.82%
Cc1c(CCOC(=O)c2cc([N+](=O)[O-])cc([N+](=O)[O-])c2)sc[n+]1CC(=O)c1ccc(Br)cc1,"inconclusive: 14.1 µM [inhibitor, partial curve, poor fit]",–
O=S(=O)(N1CCOCC1)N1CCCN(S(=O)(=O)N2CCOCC2)CC1,"inconclusive: 6.31 µM [inhibitor, single point]",–
Cc1ccc(-c2cc(C(=O)Nc3nccs3)c3ccccc3n2)o1,"inconclusive: 39.8 µM [inhibitor, single point]",–
CC(C)OCCOc1ccc2oc(-c3ccco3)cc(=O)c2c1,"inconclusive: 31.6 µM [inhibitor, single point]",–
CCOc1ccc2c(c1)C(c1cccs1)=NNC(c1cccnc1)=N2,–,inactive: 15.9%
COc1ccc(S(=O)(=O)N(CCC(=O)O)Cc2ccccc2)cc1,–,inactive: -8.18%
COCc1nc2ccccc2n1CCc1ccccc1,"inconclusive: 7.08 µM [inhibitor, single point]",–
C=CCN=c1scc(-c2ccc(F)cc2)n1/N=C/c1ccccn1,"inconclusive: 22.4 µM [inhibitor, partial curve]",–
CCN(C(=O)COC(=O)/C=C/c1ccco1)C1CCCCC1,"inconclusive: 35.5 µM [inhibitor, single point]",–
NC(=S)N/N=C/c1ccccc1O,"inconclusive: 20 µM [inhibitor, partial curve]",–
Cc1ccc(C(C)C)c(OCCCCN2CCNCC2)c1,–,inactive: -7.5%
O=[N+]([O-])c1ccccc1NCc1ccc(Cl)cc1,"inconclusive: 17.8 µM [inhibitor, single point]",–
NS(=O)(=O)c1ccc(CCNC(=O)NC2(C(F)(F)F)Oc3ccccc3O2)cc1,"inconclusive: 6.31 µM [inhibitor, single point]",–
O=c1oc2ccccc2nc1/C=C(O)/C=C/c1ccc(F)cc1,"inconclusive: 35.5 µM [inhibitor, single point]",–
O=C(CC1CCCC1)NNC(=O)c1ccc(F)cc1,–,inactive: -3.15%
Oc1ccc(/C=N/N=C/c2ccc(O)c(O)c2)cc1O,active: 8.91 µM,–
COc1ccc(-c2ccc(/C=N/N3C(=O)C4C5C=CC(C6CC56)C4C3=O)o2)c([N+](=O)[O-])c1 (stereo not given),"inconclusive: 39.8 µM [inhibitor, single point]",–
Cc1ccccc1NC(=O)CN1C(=O)N/C(=C\c2cccn2-c2cccc(C(=O)O)c2)C1=O,active: 3.55 µM,–
COc1cc([N+](=O)[O-])cc(/C=N/NC(=O)c2cncc(Br)c2)c1O,"inconclusive: 31.6 µM [inhibitor, single point]",–
O=C(O)C1CCCCC1C(=O)Nc1cccc(Br)c1 (stereo not given),active: 12.6 µM,–
CCOC(=O)C1=C(c2ccccc2)OC(N)=C(C#N)C1c1cccnc1 (stereo not given),"inconclusive: 8.91 µM [inhibitor, full curve, poor fit]",–

SMILES,Potency,"activity, negative = inhibition"
O=C(Nc1ccc(C2=NCCN2)cc1)c1ccc(C(=O)Nc2ccc(C3=NCCN3)cc2)c([N+](=O)[O-])c1,"inconclusive: 10 µM [inhibitor, partial curve]",–
OCCNc1nc(-c2ccccc2)c2cc(Br)ccc2n1,"inconclusive: 5.62 µM [inhibitor, single point]",–
O=[N+]([O-])c1cc([N+](=O)[O-])c(Oc2ccc(Cl)c3cccnc23)cc1NN1CCCCC1,"inconclusive: 35.5 µM [inhibitor, single point]",–
Cc1ccc(C(C)C)c(OCC(=O)NN=C(CCl)CCl)c1,"inconclusive: 39.8 µM [inhibitor, single point]",–
c1ccc2c(c1)CCN(c1ncnc3c1[nH]c1ccccc13)C2,–,inactive: -2.52%
Oc1ccc(/C=N/n2cnn(Cc3ccccc3Cl)c2=S)c(O)c1,–,inactive: -7.27%
CCCN=C1N(C)C[C@@H]2[C@@H]3C(=O)N(Cc4ccccc4)C(=O)[C@@H]3[C@](CC)(C(=O)OC)N12,"inconclusive: 39.8 µM [inhibitor, single point]",–
Cc1oc2c(c1C(=O)c1ccccc1)C(=O)C(=O)c1ccccc1-2,"inconclusive: 31.6 µM [inhibitor, single point]",–
COc1cc(OC)cc(-c2c(-c3cccs3)c3cc(-c4cnc(OC)nc4)ccc3n2C)c1,"inconclusive: 39.8 µM [inhibitor, partial curve, poor fit]",–
Cc1cccc(N2CCN(C(=S)c3ccc(-c4ccccc4[N+](=O)[O-])o3)CC2)c1,"inconclusive: 3.55 µM [inhibitor, partial curve, poor fit]",–
COc1ccc(CN2C(=O)CCC2(C)C(=O)NCc2cccnc2)c(OC)c1 (stereo not given),–,inactive: -5%
CC(C)(C)OC(=O)C[C@@H]1C/C=C\C[C@@H](CC(=O)NCCO)C(=O)N[C@H](C(C)(C)C)COC1=O,–,inactive: 0.249%
CN(C)C(CNS(=O)(=O)c1ccc(F)cc1)c1cccnc1 (stereo not given),"inconclusive: 7.08 µM [inhibitor, single point]",–
CC(C)(C)NC(=O)C(c1ccc(-c2ccccc2)cc1)N(C[C@H]1CC[C@@H]([C@@H]2CC[C@H](CO)O2)O1)C(=O)c1cccc(Cl)c1 (stereo not given in full),–,inactive: 0.0645%
C=CCn1c(SCCC)nc2sc3c(c2c1=O)CCc1ccccc1-3,–,inactive: 12.4%
CN(C)c1ccc(N=C/C=C2/N(C)c3ccccc3C2(C)C)cc1,"inconclusive: 14.1 µM [inhibitor, partial curve]",–
COc1ccc(-c2ccc3c(c2)O/C(=C\c2ccsc2)C3=O)cn1,–,inactive: -3.04%
CC(C(=O)NCCCc1ccccc1)c1ccc([N+](=O)[O-])cc1 (stereo not given),–,inactive: 32.6%
CCOC(=O)c1c(C)[nH]c(N=Nc2ccc(C)cc2C)c1C,"inconclusive: 28.2 µM [inhibitor, single point]",–
CC(/C=C/c1ccco1)=N/NC(=O)Cc1cccs1,"inconclusive: 35.5 µM [inhibitor, single point]",–
Cc1ccc(CSCC(=O)N(C)CC(=O)Nc2ccccc2C(F)(F)F)cc1,–,inactive: -2.63%
COc1ccc(-c2nn3c(COc4ccccc4)nnc3s2)cc1OC,–,inactive: -13.3%
